{"source": "the supplement of paper PMC3334620", "note": "In all, about 33,000 sequences were measured (“E-score (-0.5 to 0.5)”: median about -0.054, highest 2% from about 0.39 on). The list shows a part of the results."}
{"molecular_target": "Ylr278c (UniProt Q05854)", "test": "PBM E-score (8-mer binding enrichment) (E-score (-0.5 to 0.5)); higher = stronger / more preferred TF binding; most listed sequences are background and not binding sites", "settings": "protein concentration: 200 nM; construct: GST-DNA-binding domain", "how_it_was_run": "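Each ungapped eight-base word and its reverse complement, pooled, received an E-score from the Universal PBM Analysis Suite. Underlying scans, normalised with masliner, recorded fluorescent anti-GST bound to GST-tagged yeast transcription factors. These were applied at about 100-200 nM to universal all-10-mer Agilent arrays double-stranded by primer extension.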"}
{"sequence": "CACAGTTA", "PBM E-score": -0.193}
{"sequence": "CGAAAAGA", "PBM E-score": 0.0562}
{"sequence": "TGCAAACA", "PBM E-score": -0.384}
{"sequence": "ACTAGGCG", "PBM E-score": 0.0778}
{"sequence": "CGAATCGA", "PBM E-score": 0.163}
{"sequence": "ATCCCGCG", "PBM E-score": 0.357}
{"sequence": "CGTTGCTC", "PBM E-score": 0.072}
{"sequence": "GTTGTAGA", "PBM E-score": -0.223}
{"sequence": "ACGATACC", "PBM E-score": 0.0214}
{"sequence": "CGTGTCTC", "PBM E-score": -0.113}
{"sequence": "AAGCAGAT", "PBM E-score": -0.0158}
{"sequence": "TGCGATAA", "PBM E-score": -0.0659}
{"sequence": "CGTACACA", "PBM E-score": -0.146}
{"sequence": "ATGTCACC", "PBM E-score": -0.036}
{"sequence": "AGTGGACC", "PBM E-score": -0.189}
{"sequence": "AATGGGGC", "PBM E-score": -0.14}
{"sequence": "ATGTCCGA", "PBM E-score": 0.455}
{"sequence": "CGATTTAA", "PBM E-score": 0.0417}
{"sequence": "CATTAAAC", "PBM E-score": -0.165}
{"sequence": "CAGGGATG", "PBM E-score": -0.146}
{"sequence": "CTGTAACC", "PBM E-score": 0.0533}
{"sequence": "GCTCTCCC", "PBM E-score": -0.0961}
{"sequence": "AAAATATT", "PBM E-score": 0.05}
{"sequence": "ATTATGCA", "PBM E-score": -0.208}
{"sequence": "AAAGCATG", "PBM E-score": -0.177}
{"sequence": "CCGGGAAA", "PBM E-score": 0.354}
{"sequence": "GGGAGGGA", "PBM E-score": 0.194}
{"sequence": "CATAAATC", "PBM E-score": 0.13}
{"sequence": "GATTTGGA", "PBM E-score": -0.0154}
{"sequence": "GAGTAACA", "PBM E-score": 0.132}
{"sequence": "AAGGGTCA", "PBM E-score": -0.126}
{"sequence": "ATCTTCTA", "PBM E-score": -0.0443}
{"sequence": "ACGGAAGC", "PBM E-score": 0.199}
{"sequence": "CACCCTGC", "PBM E-score": -0.0141}
{"sequence": "GCATTCCC", "PBM E-score": 0.0781}
{"sequence": "TACCTCAA", "PBM E-score": -0.221}
{"sequence": "CGCCAGCG", "PBM E-score": -0.0683}
{"sequence": "TTGTGAAA", "PBM E-score": -0.235}
{"sequence": "ACATGATC", "PBM E-score": 0.0767}
{"sequence": "AAGGTTTA", "PBM E-score": -0.163}
{"sequence": "ACATACCC", "PBM E-score": -0.128}
{"sequence": "GCAAAGGA", "PBM E-score": 0.0145}
{"sequence": "ATCAACTA", "PBM E-score": -0.111}
{"sequence": "ATATTCCC", "PBM E-score": 0.277}
{"sequence": "GAATTGCC", "PBM E-score": 0.182}
{"sequence": "GACCAACC", "PBM E-score": -0.153}
{"sequence": "AAAGCAGA", "PBM E-score": -0.0727}
{"sequence": "CAAGAGGA", "PBM E-score": -0.324}
{"sequence": "AAGCGAAC", "PBM E-score": 0.00399}
{"sequence": "CGCGCTCA", "PBM E-score": -0.0872}
{"sequence": "ATACGACC", "PBM E-score": -0.192}
{"sequence": "CTGGGCTA", "PBM E-score": -0.0701}
{"sequence": "CTATTTCA", "PBM E-score": 0.0631}
{"sequence": "CGCCAGGA", "PBM E-score": -0.0548}
{"sequence": "AGCGACGG", "PBM E-score": 0.221}
{"sequence": "ACGAGCAG", "PBM E-score": -0.129}
{"sequence": "AAATCATA", "PBM E-score": -0.0761}
{"sequence": "ACCGTCGT", "PBM E-score": -0.0162}
{"sequence": "CATCTTCC", "PBM E-score": 0.22}
{"sequence": "ACATTGGC", "PBM E-score": -0.222}
{"sequence": "CACCGGAC", "PBM E-score": 0.439}
{"sequence": "CGGGCGAA", "PBM E-score": 0.171}
{"sequence": "GGGCGAAC", "PBM E-score": 0.0496}
{"sequence": "GTCGGTTA", "PBM E-score": 0.0468}
{"sequence": "CGGAGAGA", "PBM E-score": 0.402}
{"sequence": "CAGGATGG", "PBM E-score": -0.121}
{"sequence": "AGGCGAAA", "PBM E-score": -0.149}
{"sequence": "TAGCGATA", "PBM E-score": -0.13}
{"sequence": "AACCATGA", "PBM E-score": -0.00684}
{"sequence": "CAGGTTAC", "PBM E-score": -0.0975}
{"sequence": "AATGCATT", "PBM E-score": -0.0548}
{"sequence": "ATCCAACG", "PBM E-score": -0.126}
{"sequence": "GACGGGAC", "PBM E-score": 0.102}
{"sequence": "GAATCCAA", "PBM E-score": 0.138}
{"sequence": "AAGGAAAC", "PBM E-score": -0.0183}
{"sequence": "ACCCAGTG", "PBM E-score": -0.167}
{"sequence": "ACACACTA", "PBM E-score": -0.13}
{"sequence": "TAGCCTCA", "PBM E-score": -0.182}
{"sequence": "CTCAATCC", "PBM E-score": 0.0483}
{"sequence": "GGCGACTA", "PBM E-score": -0.0576}
{"sequence": "ACGCCAGC", "PBM E-score": -0.219}
{"sequence": "ATTTTACA", "PBM E-score": -0.181}
{"sequence": "CTCCCCTA", "PBM E-score": 0.117}
{"sequence": "CGCTTGCA", "PBM E-score": 0.113}
{"sequence": "CGCCGCAG", "PBM E-score": 0.264}
{"sequence": "ATGGGCCC", "PBM E-score": 0.135}
{"sequence": "CAACGGAC", "PBM E-score": 0.312}
{"sequence": "CTTCGTGC", "PBM E-score": -0.199}
{"sequence": "AGGGCGTC", "PBM E-score": 0.205}
{"sequence": "TCCCGACA", "PBM E-score": 0.249}
{"sequence": "AGACTTCA", "PBM E-score": -0.353}
{"sequence": "AATAAGAA", "PBM E-score": 0.0408}
{"sequence": "AAAGAATA", "PBM E-score": -0.135}
{"sequence": "GTCCTCTA", "PBM E-score": -0.303}
{"sequence": "AATTGGTA", "PBM E-score": -0.0558}
{"sequence": "CCATTAGC", "PBM E-score": -0.1}
{"sequence": "CGATTCAG", "PBM E-score": 0.043}
{"sequence": "GCTGTCTA", "PBM E-score": -0.154}
{"sequence": "AAGAGTCT", "PBM E-score": -0.107}
{"sequence": "CAAGGTCG", "PBM E-score": -0.0351}
{"sequence": "CGAGTTAA", "PBM E-score": 0.0748}
{"sequence": "CACTGAAG", "PBM E-score": 0.00425}
{"sequence": "CGGGCCTC", "PBM E-score": 0.197}
{"sequence": "AAAACACC", "PBM E-score": 0.142}
{"sequence": "ACGACAAA", "PBM E-score": 0.0515}
{"sequence": "CTTCAGCC", "PBM E-score": -0.257}
{"sequence": "ACGTAGCG", "PBM E-score": -0.127}
{"sequence": "TACCACAA", "PBM E-score": -0.101}
{"sequence": "AGCAGGCA", "PBM E-score": -0.167}
{"sequence": "AGTCGATC", "PBM E-score": 0.0408}
{"sequence": "TCCTAACA", "PBM E-score": -0.252}
{"sequence": "AAGTGAAG", "PBM E-score": -0.211}
{"sequence": "AAACGGCT", "PBM E-score": -0.0745}
{"sequence": "ATGGAGTG", "PBM E-score": -0.0888}
{"sequence": "ACTATCAT", "PBM E-score": 0.0132}
{"sequence": "AGGTTAGA", "PBM E-score": -0.0535}
{"sequence": "AGTTCACA", "PBM E-score": -0.134}
{"sequence": "TCAATCAA", "PBM E-score": -0.0345}
{"sequence": "CGTGCCTA", "PBM E-score": -0.2}
{"sequence": "CTCAGGCC", "PBM E-score": -0.121}
{"sequence": "ATCCCCCC", "PBM E-score": -0.298}
{"sequence": "ACCGCAAC", "PBM E-score": 0.236}
{"sequence": "CGTATATC", "PBM E-score": -0.0562}
{"sequence": "CGCCAGGC", "PBM E-score": 0.183}
{"sequence": "CTTTTCCA", "PBM E-score": -0.058}
{"sequence": "AGTACTCG", "PBM E-score": 0.0441}
{"sequence": "ACTCCGCT", "PBM E-score": 0.417}
{"sequence": "GCGTTATA", "PBM E-score": -0.147}
{"sequence": "GACTCCCA", "PBM E-score": -0.189}
{"sequence": "TACGTGCA", "PBM E-score": -0.068}
{"sequence": "CACATCAA", "PBM E-score": 0.0124}
{"sequence": "GGGTCGTA", "PBM E-score": -0.088}
{"sequence": "GACACGAA", "PBM E-score": -0.0323}
{"sequence": "AGCTCTAG", "PBM E-score": -0.138}
{"sequence": "GAATCAAC", "PBM E-score": 0.0316}
{"sequence": "CATGGGTC", "PBM E-score": -0.226}
{"sequence": "CCTTGAAG", "PBM E-score": -0.141}
{"sequence": "ACCCCATA", "PBM E-score": 0.082}
{"sequence": "AGAAGGAT", "PBM E-score": -0.269}
{"sequence": "ACAGTCCC", "PBM E-score": 0.127}
{"sequence": "TAGGGGAA", "PBM E-score": -0.264}
{"sequence": "GCATGCAC", "PBM E-score": -0.222}
{"sequence": "CCGAATCA", "PBM E-score": 0.177}
{"sequence": "GCCATTAA", "PBM E-score": -0.0731}
{"sequence": "ATCGTGAG", "PBM E-score": -0.00596}
{"sequence": "CGCGTCAA", "PBM E-score": -0.0645}
{"sequence": "ATACTAAA", "PBM E-score": 0.114}
{"sequence": "AGCCAAAC", "PBM E-score": 0.0822}
{"sequence": "CGAATCTC", "PBM E-score": 0.179}
{"sequence": "CTGCGTCC", "PBM E-score": -0.101}
{"sequence": "CAATCGGG", "PBM E-score": 0.219}
{"sequence": "GGCTTTAA", "PBM E-score": -0.0819}
{"sequence": "GAGATCTC", "PBM E-score": 0.162}
{"sequence": "ATCCTGTA", "PBM E-score": -0.236}
{"sequence": "AGCAAATG", "PBM E-score": -0.26}
{"sequence": "TAGAGACA", "PBM E-score": -0.175}
{"sequence": "GGCATTAC", "PBM E-score": 0.208}
{"sequence": "AGATGAGC", "PBM E-score": -0.243}
{"sequence": "TATGTAGA", "PBM E-score": -0.121}
{"sequence": "CCGAGCTA", "PBM E-score": 0.197}
{"sequence": "CACGAGGA", "PBM E-score": -0.193}
{"sequence": "CATGCAAG", "PBM E-score": -0.0348}
{"sequence": "ATGGTGGC", "PBM E-score": -0.152}
{"sequence": "GGAACGGA", "PBM E-score": 0.398}
{"sequence": "AAAAGTGA", "PBM E-score": -0.035}
{"sequence": "GAGTCATA", "PBM E-score": -0.0333}
{"sequence": "ATATTTAC", "PBM E-score": 0.104}
{"sequence": "GCACGCAA", "PBM E-score": -0.0636}
{"sequence": "CGCCTAGC", "PBM E-score": -0.105}
{"sequence": "CGCCTACA", "PBM E-score": -0.0496}
{"sequence": "AGTAACAA", "PBM E-score": -0.0481}
{"sequence": "CTACAGAG", "PBM E-score": -0.217}
